From ChEMBL document CHEMBL4888484, “Replenishing the malaria drug discovery pipeline: Screening and hit evaluation of the MMV Hit Generation Library 1 (HGL1) against asexual blood stage Plasmodium falciparum ,using a nano luciferase reporter read-out” (2022) come the findings set out here.

Out of some 150,000 compounds screened, about 540 (0.36%) showed an effect of 50% or more. The list shows a part of the results.

Usually % Inhibition stands for the drop in the measured response relative to a control, in per cent.

The assay concerns Plasmodium falciparum. Kind of assay: Primary screen in NF54 nanoGlo assay, in single point, at 2uM, 72h; a lower Z score goes with more inhibition. Format: functional, Erythrocyte. The conditions noted are these: timepoint 72 hour.
Turning to `CCOC(=O)C1CCN([C@@H](C(=O)NC2CCCCC2)c2ccc(C)cc2)CC1`, the “% Inhibition” value is 2% and the Z score is listed as -0.36.
In the same order, the values of `CCOc1ccc2c(c1)C(c1ccc(Cl)cc1)=NNC(c1ccccc1)=N2` are -10% and 1.52.
For `CN(C)S(=O)(=O)NCCNc1ncc(Cl)cc1Cl`, the “% Inhibition” value is listed as 2% and the Z score was -0.15.
The like results for `CNC(=O)Cn1cc(N[C@H]2CCN(c3ccc(Cl)cc3Cl)C2=O)cn1` were, in that order, -14% and 1.45.
In the same order, the values of `O=S(=O)(C1CCC(C(F)(F)F)CC1)N1CC[C@H](c2nc(C3CC3)no2)C1` (stereo partly specified) are 16% and -1.99.
In the same order, the values of `O=C(Nc1cccc(S(=O)(=O)N2CCOCC2)c1)N1CCCCCCC1` are -15% and 2.55.
As to `O=C(Cn1c(C2CCCCC2)nc2ccccc21)Nc1nncn1C1CC1`, the “% Inhibition” value is recorded as -15% and the Z score came out at 1.53.
For `CCc1nnc(-c2ccc(=O)n(CC(=O)Nc3ccc(C)c(C)c3)c2)o1`, the “% Inhibition” value came to 2% and the Z score is reported as -0.33.
For `COc1cc(-c2ccno2)ccc1S(=O)(=O)Nc1cccc2c1CCCC2`, the “% Inhibition” value was determined as 1% and the Z score is -0.12.
The like results for `COc1cc(OC)cc(-c2c3c(O)nn(C(C)C)c3nc3[nH]c(=O)n(C)c23)c1` were, in that order, -3% and 0.3.
Take `Cn1c(Cn2c(=O)n(C3=CCCCC3)c3ccccc32)nnc1C1CC1`: the “% Inhibition” value is given as -17% and the Z score is given as 3.22.
In the same order, the values of `CCN(Cc1ccncc1)[C@H]1CCCN(C(=O)Cn2cnnn2)C1` are 4% and -0.74.
In the same order, the values of `CC(=O)c1ccc(NCCC(=O)c2ccc3c(c2)OCO3)cc1` are -14% and 1.52.
In the same order, the values of `CN(CCO)Cc1nnc(C2CCN(c3nc(C(N)=O)cs3)CC2)n1C` are -1% and 0.06.
For `N#Cc1ncn(Cc2csc(C3CC3)n2)c1C#N`, the “% Inhibition” value was -11% and the Z score worked out at 0.96.
In the same order, the values of `CCN1C[C@@H](C(=O)Nc2cc(C)ns2)CCC1=O` are 6% and -0.89.
The like results for `COc1ccc([C@H]2CC(=O)NCc3nc(N(C)C)sc32)cc1CN(C)C` were, in that order, -18% and 1.65.
In the same order, the values of `O=C(COc1ccc(OCc2ccccc2)cc1)N1CCCC1` are 0% and 0.02.
Regarding `CC(C)(C(=O)O)c1ccc(S(=O)(=O)N2Cc3ccccc3C2)cc1`, the “% Inhibition” value was -6% and the Z score is 1.22.
The like results for `Cc1sc(NC(=O)C(C)C)c(C(=O)N2CCNC(=O)CC2)c1C` were, in that order, 13% and -1.67.
The like results for `Cc1ncc(CNCc2ccccc2CN2C(=O)NC3(CCCCC3)C2=O)o1` were, in that order, -10% and 1.04.
In the same order, the values of `CCOc1cc(CNC(=O)[C@H](C)n2c3ccccc3c3cnn(C)c(=O)c32)ccc1OC` are -9% and 0.92.
Turning to `Cc1ccc(C[C@H](C)NC(=O)CCN2C(=O)CCC2=O)s1`, the “% Inhibition” value is reported as 2% and the Z score was -0.32.
